Test results published in publication PMC4336329 (PLoS ONE, 2015).
Out of some 310,000 compounds screened, about 14,000 (4.5%) showed an effect of 50% or more. The effect is printed as a negative number. The list shows a part of the results.

Molecular target: human ether-à-go-go-related gene (hERG) potassium channel (human, UniProt Q12809)
Test: primary screen, population patch clamp on CHO cells stably expressing hERG
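Note: peak tail current of the secondary pulse compared with the same well before compound.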

Chain of human ether-à-go-go-related gene (hERG) potassium channel (Q12809 whole entry, looked up): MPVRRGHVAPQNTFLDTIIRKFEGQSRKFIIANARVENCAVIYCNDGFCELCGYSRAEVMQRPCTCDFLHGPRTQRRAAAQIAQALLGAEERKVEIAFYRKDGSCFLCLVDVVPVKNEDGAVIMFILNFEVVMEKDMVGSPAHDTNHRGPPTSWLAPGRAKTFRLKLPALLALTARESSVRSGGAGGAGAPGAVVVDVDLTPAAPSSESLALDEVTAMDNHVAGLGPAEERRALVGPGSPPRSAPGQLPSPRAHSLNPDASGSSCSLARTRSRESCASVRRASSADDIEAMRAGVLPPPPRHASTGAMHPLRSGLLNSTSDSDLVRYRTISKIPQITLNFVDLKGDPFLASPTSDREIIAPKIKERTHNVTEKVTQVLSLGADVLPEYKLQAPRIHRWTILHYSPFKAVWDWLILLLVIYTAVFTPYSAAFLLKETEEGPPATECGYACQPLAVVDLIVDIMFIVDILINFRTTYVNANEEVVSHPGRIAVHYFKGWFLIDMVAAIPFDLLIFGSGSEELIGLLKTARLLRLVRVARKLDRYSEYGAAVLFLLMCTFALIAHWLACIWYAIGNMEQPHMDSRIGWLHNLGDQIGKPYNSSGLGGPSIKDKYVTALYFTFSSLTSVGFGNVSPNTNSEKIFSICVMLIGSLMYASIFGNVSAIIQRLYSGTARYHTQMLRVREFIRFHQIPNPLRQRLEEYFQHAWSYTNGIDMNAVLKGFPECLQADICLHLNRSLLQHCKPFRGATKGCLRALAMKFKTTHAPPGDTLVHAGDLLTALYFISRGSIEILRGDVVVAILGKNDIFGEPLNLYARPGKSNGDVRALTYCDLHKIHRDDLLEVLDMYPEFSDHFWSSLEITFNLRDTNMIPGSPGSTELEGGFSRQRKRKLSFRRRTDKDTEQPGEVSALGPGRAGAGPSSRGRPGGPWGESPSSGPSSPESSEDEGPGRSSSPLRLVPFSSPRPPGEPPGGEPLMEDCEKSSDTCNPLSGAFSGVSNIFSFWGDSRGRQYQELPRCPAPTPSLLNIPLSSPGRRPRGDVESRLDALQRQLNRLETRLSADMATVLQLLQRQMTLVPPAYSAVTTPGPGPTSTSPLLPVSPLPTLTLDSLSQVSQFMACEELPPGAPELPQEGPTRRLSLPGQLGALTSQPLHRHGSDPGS

Row | Structure (SMILES) | hERG current change (%, negative = inhibition) at 10uM [%]
1 | COc1cccc(/C=N/N=C(\N)c2nonc2N)c1O | 16.4
2 | Cc1cc(N)nc(C)c1C#N | 2.13
3 | COc1ccc(C(CC(=O)Nc2ccc(C)cc2)NC(=O)C(F)(F)F)cc1 (stereo not shown) | -4.81
4 | CCOC(=O)/C(=C/c1ccc(OC(=O)c2ccccc2)cc1)C(C)=O | -1.74
5 | COc1ccccc1/C=N/NS(=O)(=O)c1ccccc1 | 8.76
6 | O=C(COC(=O)c1ccncc1)c1ccccc1 | 16.2
7 | NC(=O)C1CCN(C2=C(NS(=O)(=O)c3ccc(Br)cc3)C(=O)c3ccccc3C2=O)CC1 | -72.1
8 | O=C(Nc1ccccc1)Nc1nnc(SCc2ccc(Cl)cc2)s1 | 18.1
9 | Cc1cc(C)cc(C(=O)Nc2c3c(nn2C(C)(C)C)CS(=O)(=O)C3)c1 | 13.5
10 | Cc1snc(S(=O)(=O)/C(C#N)=N/Nc2ccc(C(F)(F)F)cc2)c1C#N | 27
11 | Cc1ccc(-c2csc3ncnc(N4CCN(C)CC4)c23)cc1C | -18.7
12 | Cc1ccc(C)c(Oc2cc(NC(=O)CCCn3nc(C)c([N+](=O)[O-])c3C)cc([N+](=O)[O-])c2)c1 | -5.44
13 | CC(O)CO (stereo not shown) | 17.7
14 | COc1ccccc1NC(=O)c1ccc[n+]([O-])c1 | 18
15 | COCCCNC(=S)NC(=O)c1ccc(C)cc1 | 7.65
16 | CCCOc1ccc(/C=N/n2nnnc2N)cc1OC | 10.7
17 | COc1ccc(O)c(C(c2c(C)[nH][nH]c2=O)c2c(C)[nH][nH]c2=O)c1 | -10.6
18 | CCCn1nc(C(=O)OCC(=O)NC(C)c2ccccc2)c2ccccc2c1=O (stereo not shown) | 4.59
19 | COC(=O)Nc1ccc(S(=O)(=O)Nc2cnc3ccccc3n2)cc1 | 28.2
20 | COc1cc(OC)c2c(-c3ccccc3)cc(=O)oc2c1C(CCN1CCCCC1)c1ccc(N(C)C)cc1 (stereo not shown) | -25
21 | COCCCN1CCN(c2nnc3n2-c2sc(Br)cc2C(c2ccccc2Cl)=NC3)CC1.CS(=O)(=O)O | -47.7
22 | COC(=O)C1=C(c2ccccc2OCc2ccccc2)C[C@@H]2CC[C@H]1N2C(=O)NCc1ccc(C(F)(F)F)cc1 | -4.61
23 | CCOC(=O)c1c(C)cc(C)[nH]c1=O | 10.3
24 | CCN(Cc1nc2cc(Cl)ccc2c(=O)[nH]1)C(=O)c1nn(C)c(=O)c2ccccc12 | -21.4
25 | Cc1nc(NC(=O)c2ccccc2)sc1C1(C)CC(c2ccc(OC(F)(F)F)cc2)=NO1 (stereo not shown) | 9.56
